In patent US10858425B2, “Pan-ELR+ CXC chemokine antibodies” (Eli Lilly and Company, priority 2013, dated 2020):

How the values were obtained:
human CXCL8 = target: T1, human CXCL8 (Homo sapiens, UniProt P10145); assay: Western blot analysis of human CXCL8 under reducing and non-reducing conditions; format: binding; conditions: antibody 1 μg/mL
T1 sequence (P10145 28-99 limits assumed): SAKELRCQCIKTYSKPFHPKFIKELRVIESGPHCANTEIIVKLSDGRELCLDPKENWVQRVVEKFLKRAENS
Procedure: To determine if Antibody 1 is able to bind a linear or conformational epitope, Western blot analysis is performed using reducing and non-reducing conditions. Electrophoresis of the proteins is performed using pre-cast NuPAGE® 4-12% Bis-Tris gels. NuPAGE® MES SDS running buffer is added to both the inner (200 mL) and outer (at least 600 mL) chambers of the mini-cells. Serial dilutions of human CXCL8 (400 ng, 100 ng, or 25 ng per lane) are made in NuPAGE® LDS 4× Sample Buffer with or without NuPAGE® IOX Sample Reducing Agent. Samples are heated at 95° C. for 2 minutes. Load volumes are 10 μL per lane for the samples, and 5 μL per lane for the SeeBlue Plus2 Prestained Standard marker. The gels are run at 200V for 35 minutes at room temperature.
Proteins are transferred to PVDF using the iBlot® Dry Blotting System with iBlot®® Transfer Stack, Nitrocellulose, Mini. The membrane is blocked in blocking solution (3% nonfat milk in phosphate buffered saline) for 1 hour at room temperature. Antibody 1 is added to the blocking solution to a final concentration of 1 μg/mL and then is incubated for 2 hours at room temperature. Following primary incubation, the antibody/block solution is removed, and the membrane is washed 3 times for 15 minutes in wash buffer (phosphate buffered saline+0.05% Tween 20). […]

human CXCL3 (Gro gamma) = target: T2, human CXCL3 (Gro gamma) (Homo sapiens, UniProt P19876); assay: Biacore surface plasmon resonance binding to human CXCL3; conditions: 25° C.
T2 sequence (P19876 35-107): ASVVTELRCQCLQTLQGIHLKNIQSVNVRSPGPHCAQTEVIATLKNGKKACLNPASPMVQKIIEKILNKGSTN
Procedure: Biacore 2000 instrument and Biacore 2000 Evaluation Software Version 4.1 are used for surface plasmon resonance analysis. A […] chip is prepared using manufacturer's EDC/NHS amine coupling method. Briefly, the surfaces of all four flow cells are activated by injecting a 1:1 mixture of EDC/NHS for 7 minutes at 10 μL/min. Protein A is diluted to 100 μg/mL in 10 mM acetate, pH 4.5 buffer, and immobilized to achieve approximately 10,000 RU onto all 4 flow cells by 7-minute injection at a flow rate of 10 μL/minute. Unreacted sites are blocked with a 7-minute injection of ethanolamine at 10 μL/minute. Two injections of glycine (pH 1.5) for 30 seconds at 10 μL/minute are used to remove any non-covalently associated protein. Running buffer is HBS-EP+.
Antibody 1 or Antibody 2 is diluted to 2 μg/mL in running buffer, and approximately 400-600 RU is captured in flow cell (Fc). Ligands are diluted from 100 μg/mL to 50 nM in running buffer and then two-fold serially diluted in running buffer to 3.125 nM. Duplicate injections of each ligand concentration are injected at 100 μL/min for 150 seconds followed by a dissociation phase. […] The on-rate (kon) and off-rate (koff) for each ligand are evaluated using a “1:1 (mass transfer) Binding” binding model. The affinity […] is calculated from the binding kinetics according to the relationship: KD=koff/kon.

binding to non-reduced, denatured human CXCL8 (human CXCL8; non-reducing conditions): able to bind
binding to reduced, denatured human CXCL8 (human CXCL8; reducing conditions): unable to bind
kon (human CXCL3 (Gro gamma)): 7.16 ± 0.08 (1/Ms) × 10^5
B1: Antibody 1: antibody with heavy chain SEQ ID NO: 1 and light chain SEQ ID NO: 3, expressed in NSO cells (antibody)
heavy: QVQLVQSGAEVKKPGASVKVSCKASGYEFTSYWIHWVRQAPGQGLEWMGNISPNSGSANYNEKFKSRVTMTRDTSTSTVYMELSSLRSEDTAVYYCAREGPYSYYPSREYYGSDLWGQGTLVTVSSASTKGPSVFPLAPCSRSTSESTAALGCLVKDYFPEPVTVSWNSGALTSGVHTFPAVLQSSGLYSLSSVVTVPSSSLGTKTYTCNVDHKPSNTKVDKRV[human IgG4 Fc with S228P (EU numbers) not spelt out]
light: EIVLTQSPATLSLSPGERATLSCRASQSISNNLHWYQQKPGQAPRLLIYYTSRSVSGIPARFSGSGSGTDFTLTISSLEPEDFAVYYCGQNNEWPEVFGGGTKVEIKRTVAAPSVFIFPPSDEQLKSGTASVVCLLNNFYPREAKVQWKVDNALQSGNSQESVTEQDSKDSTYSLSSTLTLSKADYEKHKVYACEVTHQGLSSPVTKSFNRGEC
